# Settings: STOCK_10_R1-R3 (replicates) of the block 10 ug/mL MAF, 24 hr exposure; raw GC-MS/MS analyte/ISTD response ratio
row,SMILES,"ISTD Resp. Ratio, stock"
1,c1ccc2c(c1)-c1cccc3c1c-2cc1ccccc13 [Benzo[b]fluoranthene],814.16
2,c1ccc2cc3ccccc3cc2c1 [Anthracene],241.043
3,Cc1ccc2ccccc2c1 [2-Methylnaphthalene],233.459
4,Cc1cccc2ccccc12 [1-Methylnaphthalene],233.459
5,c1cc2cccc3c4cccc5cccc(c(c1)c23)c54 [Perylene],908.239
6,"c1ccc2c(c1)-c1ccc3ccc4cccc5cc-2c1c3c45 [Indeno[1,2,3-cd]pyrene]",389.481
7,c1cc2ccc3cccc4ccc(c1)c2c34 [Pyrene],504.073
8,c1ccc2c(c1)ccc1c3ccccc3ccc21 [Chrysene],487.585
9,"c1cc2ccc3ccc4ccc5cccc6c(c1)c2c3c4c56 [Benzo[g,h,i]perylene]",426.016
10,"c1ccc2c(c1)ccc1cc3c(ccc4ccccc43)cc12 [Dibenzo[a,h]anthracene]",175.615

# From article PMC9866728, “Dosing Methods to Enable Cell-Based In Vitro Testing of Complex Substances: A Case Study with a PAH Mixture” (Toxics, 2022)
